From article doi:10.1101/308353 (bioRxiv, 2018) come the findings set out here.

As a reminder, the koff is the rate constant with which the complex falls apart. A high value points to a short-lived complex.

This test has as its target Cy3 conjugated G-actin (UniProt P68135, Cy3 conjugated). As to the kind of experiment: single molecule TIRF microscopy.

B1: GFP-βRat CaMKII holoenzyme (enzyme)
chain: MATTVTCTRFTDEYQLYEDIGKGAFSVVRRCVKLCTGHEYAAKIINTKKLSARDHQKLEREARICRLLKHSNIVRLHDSISEEGFHYLVFDLVTGGELFEDIVAREYYSEADASHCIQQILEAVLHCHQMGVVHRDLKPENLLLASKCKGAAVKLADFGLAIEVQGDQQAWFGFAGTPGYLSPEVLRKEAYGKPVDIWACGVILYILLVGYPPFWDEDQHKLYQQIKAGAYDFPSPEWDTVTPEAKNLINQMLTINPAKRITAHEALKHPWVCQRSTVASMMHRQETVECLKK[here about 20 residues without letters]VGRQTTAPATMSTAASGTTMGLVEQAKSLLNKKADGVKPQTNSTKNSSAITSPKGSLPPAALEPQTTVIHNPVDGIKESSDSTNTTIEDEDAKARKQEIIKTTEQLIEAVNNGDFEAYAKICDPGLTSFEPEALGNLVEGMDFHRFYFENLLAKNSKPIHTTILNPHVHVIGEDAACIAYIRLTQYIDGQGRPRTSQSEETRVWHRPDGKWQNVHFHCSGAPVAPLQ
As for B1, the koff is 2.55 s⁻¹.
